Reference: PMC4336329 (PLoS ONE, 2015)
Hit rate of the full screen: of about 310,000 compounds, about 14,000 (4.5%) showed an effect of 50% or more. Effects have a minus sign here. The list shows a part of the results.

molecular target: human ether-à-go-go-related gene (hERG) potassium channel (human, UniProt Q12809); experiment: primary screen, population patch clamp on CHO cells stably expressing hERG
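Note: peak tail current of the secondary pulse compared with the same well before compound.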

Sequence of human ether-à-go-go-related gene (hERG) potassium channel (Q12809 whole entry, looked up): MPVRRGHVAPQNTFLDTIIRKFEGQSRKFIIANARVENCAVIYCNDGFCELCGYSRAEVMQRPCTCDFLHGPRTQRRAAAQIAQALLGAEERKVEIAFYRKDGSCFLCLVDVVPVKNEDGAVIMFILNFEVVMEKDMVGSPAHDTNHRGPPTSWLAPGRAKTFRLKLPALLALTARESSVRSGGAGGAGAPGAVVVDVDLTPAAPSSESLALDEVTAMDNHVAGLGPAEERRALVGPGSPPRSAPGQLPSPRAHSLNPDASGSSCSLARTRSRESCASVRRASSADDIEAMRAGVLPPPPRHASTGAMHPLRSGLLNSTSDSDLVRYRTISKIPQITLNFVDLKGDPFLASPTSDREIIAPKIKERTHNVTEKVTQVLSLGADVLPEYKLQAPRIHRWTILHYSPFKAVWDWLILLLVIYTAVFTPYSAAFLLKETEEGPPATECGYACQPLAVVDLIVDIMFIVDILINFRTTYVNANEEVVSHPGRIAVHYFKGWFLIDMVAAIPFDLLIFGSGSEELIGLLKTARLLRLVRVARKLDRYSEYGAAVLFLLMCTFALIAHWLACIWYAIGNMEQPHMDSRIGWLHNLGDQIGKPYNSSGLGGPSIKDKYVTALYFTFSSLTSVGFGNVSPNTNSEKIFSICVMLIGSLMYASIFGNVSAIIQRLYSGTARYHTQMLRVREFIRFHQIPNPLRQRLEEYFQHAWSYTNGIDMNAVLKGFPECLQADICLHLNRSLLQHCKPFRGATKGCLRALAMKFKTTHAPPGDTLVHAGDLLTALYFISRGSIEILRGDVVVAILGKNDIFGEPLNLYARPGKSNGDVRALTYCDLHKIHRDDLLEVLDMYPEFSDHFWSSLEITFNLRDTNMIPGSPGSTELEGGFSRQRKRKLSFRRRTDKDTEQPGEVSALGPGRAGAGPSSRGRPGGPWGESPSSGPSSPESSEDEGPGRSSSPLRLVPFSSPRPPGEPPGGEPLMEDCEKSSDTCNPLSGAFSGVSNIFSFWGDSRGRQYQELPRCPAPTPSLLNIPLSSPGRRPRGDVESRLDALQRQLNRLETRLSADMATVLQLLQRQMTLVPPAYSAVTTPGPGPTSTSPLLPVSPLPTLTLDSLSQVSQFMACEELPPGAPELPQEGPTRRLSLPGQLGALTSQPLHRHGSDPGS

Compound	hERG current change (%, negative = inhibition) at 10uM
COc1cccc(OC)c1C(=O)Nc1c(C(=O)N2CCN(C)CC2)oc2ccccc12	-29.1%
O=C(CN1CCN(Cc2ccc3c(c2)OCO3)CC1)NCC(F)(F)F	5.34%
CCNC(=O)C1CCCN(c2nc(C)cc(C)n2)C1 (stereo not drawn)	16.9%
Cc1ccc(S(=O)(=O)NCc2ccccn2)c(C)c1C	-4.89%
CCOc1ccc(S(=O)(=O)N2CC(=O)Nc3ccccc32)cc1	22.1%
O=C(O)c1cccc(Nc2ccnc(Nc3cccc(C(=O)O)c3)n2)c1	15.6%
CCCn1cnnc1CNC(=O)C1CCC(=O)N(CCCc2ccccc2)C1 (stereo not drawn)	6.8%
O=C(O)c1ccccc1C(=O)N1CCN(c2ncccn2)CC1	18.6%
O=C1C=C(c2ccc(OC(F)(F)F)cc2)C[C@@H](c2ccc(Cl)cc2)C1	13.2%
Cc1cccc(NC(=O)c2cnc3sccn3c2=O)n1	6.27%
CC(c1cccnc1)N(CCN(C)C)C(=O)Nc1ccc(Cl)c(Cl)c1 (stereo not drawn)	-48.2%
COc1ccc(CCC(=O)NCCS(=O)(=O)N2CCN(c3ccccc3F)CC2)cc1	-63.2%
CC1CC(C)CN(C(=O)Cn2c(=O)n(CCCCC(=O)NC3CCCC3)c(=O)c3ccccc32)C1 (stereo not drawn)	-2.79%
CCOC(=O)c1c(C)oc2cc(Br)c(OC(=O)N3CCOCC3)cc12	-21.5%
COCc1ccc(C(=O)N2CCc3c([nH]c4ccccc34)C2c2ccccn2)s1 (stereo not drawn)	-17.8%
Cc1cc(=O)oc2cc(OC(C)C(=O)O)c(Cl)cc12 (stereo not drawn)	-9.5%
Cc1ccc(Cn2c(SCC(N)=O)nc3c2c(=O)n(C)c(=O)n3C)cc1	1.27%
O=C(NCCC1=CCCCC1)c1ccc(Br)o1	-4.78%
COC(=O)CCSCC(=O)Nc1ccc(C)c(S(=O)(=O)N2CCCCC2)c1	3.27%

Compound	hERG current change (%, negative = inhibition) at 10uM
N#Cc1ccccc1OCCOCCNC1CCCC1	-9.05%
CCc1c(C)sc(NC(=O)c2cc(-c3ccc(O)cc3)on2)c1C#N	11.2%
Cl.NC(Cc1ccccc1)c1nc2ccccc2[nH]1 (stereo not drawn)	24%
O=C(Nc1ccc(NC(=O)c2cccs2)c(Cl)c1)c1cccs1	25.5%
COc1ccc(-n2nc3cc(N)c(Br)cc3n2)cc1	16.7%
CCc1c(C)sc(NC(NC(C)=O)(C(=O)OC)C(F)(F)F)c1C#N (stereo not drawn)	1.74%
COc1cccc(C(C(=O)NC2CCCC2)N(C(=O)c2ccco2)c2ccc(-n3cnnn3)c(C)c2)c1OC (stereo not drawn)	8.33%
Cc1ccc(O)c(C(CC(=O)NC(C)C)c2ccccc2)c1 (stereo not drawn)	6.85%
COC(=O)c1ccc(C2NCCc3cc(OC)c(OC)cc32)cc1 (stereo not drawn)	5%
CC(C)Cc1cc(C(=O)NCCN2CCOCC2)no1	7.92%
O=C(NC12CC3CC(CC(C3)C1)C2)c1ccc(-c2ccc(Br)cc2)o1	8.55%
CCn1c(C)c(P(c2ccccc2)c2ccccc2)[n+]2ccccc12.F[B-](F)(F)F	-11.6%
O=C(COc1ccc(Br)cc1Br)NC(=O)NC1CCCC1	22.3%
Cc1cc(=O)[nH]c(SCCc2ccccc2)n1	0.0472%
Cc1ccccc1OCC(=O)N1CCC2(CC1)CC(=O)c1ccccc1O2	-57.5%
Cc1ccc(CNC(=O)N2CCN(S(=O)(=O)c3ccccc3)CC2)cc1	9.31%
COc1ccc(-c2c(C#Cc3ccsc3)c3cc(-c4ccc(OC)nc4)ccc3n2C)cc1	18.9%
CCN(CC)CCN(C(=O)CCS(=O)(=O)c1ccccc1)c1nc2cc3c(cc2s1)OCO3.Cl	-20.6%
CCOc1ccc(/C=N/NC(=O)Cc2csc(Nc3cccc(C(F)(F)F)c3)n2)cc1	-3.29%

Compound	hERG current change (%, negative = inhibition) at 10uM
O=C(C/C=N\O)Nc1ccc(Oc2ccccc2)cc1	0.575%
CC(NC(=O)CN1C(=O)NC2(CCCCC2C)C1=O)c1ccccc1 (stereo not drawn)	-1.57%
COc1ccc(CN2C(=O)CC(Cc3ccc(C)cc3)C2=O)cc1OC (stereo not drawn)	-4.33%
O=C(CN1C(=O)CSCC1=O)NCc1ccc(F)cc1	11.2%
CCNC(=S)NNC(=O)c1cc(-c2cccnc2)nc2ccccc12	12.9%
O=C(c1ccc(CNc2c(N3CCCC3)c(=O)c2=O)cc1)N1CC=C(c2ccccc2)CC1	-34.3%
Cc1ccc(Cn2c(SCCN3CCCCC3)nc3c2c(=O)n(C)c(=O)n3C)cc1	-75.4%
Nc1nnc(SCCOc2ccc(Br)cc2)s1	5.07%
O=C(Nc1ccccc1)Nc1ccc(Oc2ncnc3cc(Cl)ccc23)nc1	7.06%
O=C(CN1C(=O)CCC1=O)Nc1nc(-c2nc3ccccc3s2)cs1	-46%
Nn1cc(-c2ccccc2)nc1SCC(=O)NCCN1C(=O)CSC1=O	12.9%
O=C(CCCn1cnc([N+](=O)[O-])n1)Nc1cc(Cl)ccc1O	7.02%
Cc1ccc(S(=O)(=O)NC(C)C(=O)Nc2ccc(C(N)=O)cc2)cc1 (stereo not drawn)	20.9%
CCCCSc1nnc(-c2ccc(C)cc2)c2ccccc12	3.91%
Cc1cccc(C)c1OCC(O)CN(Cc1ccccc1O)C1CCCCC1 (stereo not drawn)	-4.28%
N#Cc1cc(C(=O)c2ccccc2OCC(=O)Nc2ccccc2)cn(C2CCCCC2)c1=O	18.7%
CC1CCC(NC(=O)C2CCC(CNc3c(N4CCCCC4)c(=O)c3=O)CC2)CC1 (stereo not drawn)	3.05%
CCCOc1ccc(OCC(=O)c2[nH]c(C)c(C(C)=O)c2C)cc1	5.2%
CCC(=O)c1ccccc1OCCSc1nc(C)cc(=O)[nH]1	-11.9%
